44 compounds from the supplement of paper PMC4723716 can be followed below.

± gives the uncertainty stated by the source. The full ranking holds about 9,900 compounds; the median of “viability index relative to DMSO control” is about 1, and the lowest 2% start at about 0.85. The list shows a part of the results.

For the test, the system named is Plasmodium falciparum NF54 stage V gametocytes. In words: viability index relative to DMSO control (fraction); higher = less gametocyte killing. The following applies: 2.5 µM, incubation time: 72 h. In short, it runs like this: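 In 1,536-well plates, 10 µl of serum-free medium holding P. falciparum NF54 stage V gametocytes (0.75% gametocytemia, 1.25% hematocrit) received compound at 2.5 µM for 72 hr at 37°C in low oxygen. After one to two hours with 3 µl of 2.5 µM MitoTracker Red CMXRos containing 0.13% saponin, red particles of 20–70 µm2 were counted in a single field per well. Viability index is reported as the particle count over the plate mean of wells treated with solvent only.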

[1] abbreviates: library set: Broad Institute Blood Stage.
The mark [2] stands for this setting: library set: Broad Institute DOS.

Under setting [1], `COc1ccccc1CN1C[C@@H](C)[C@H](OC)CN(C)C(=O)c2ccc(NC(=O)Nc3ccccc3OC)cc2OC[C@H]1C` yielded a viability index of 0.855 ± 0.025.
As to `CCCNC(=O)N1C[C@H](C)[C@@H](OC)CN(C)C(=O)c2ccc(NC(=O)CC)cc2OC[C@@H]1C`, the viability index under setting [2] was determined as 1.04 ± 0.033.
The same measure, in the same setting: the result for `N#C[C@H]1[C@H](c2ccccc2)[C@@H](CO)N1C(=O)c1ccccc1F` reads 1.09 ± 0.072; that for `CCN(C[C@@H]1[C@@H](c2ccc(-c3cccnc3)cc2)[C@H](CO)N1C(C)=O)C(C)=O`, 0.956 ± 0.12; that for `Cc1noc(C)c1NC(=O)Nc1ccc2c(c1)C(=O)N([C@@H](C)CO)C[C@H](C)[C@H](CN(C)Cc1ccc3c(c1)OCO3)OCCCC[C@@H](C)O2`, 1.065 ± 0.0015.
`OC[C@@H]1[C@H](c2ccccc2)C2(CN(Cc3cccnc3)C2)N1Cc1ccncc1` yielded a viability index under setting [2] of 1.1 ± 0.047.
On the same count and under the same terms, the result for `COc1ccc(C#Cc2ccc([C@H]3[C@@H](CO)N4C(=O)CN(C(=O)NC(C)C)C[C@H]34)cc2)cc1` reads 1.06 ± 0.022; that for `c1ccc(-c2ccc([C@H]3[C@H]4CNC[C@@H]3N4Cc3cc(-c4ccccc4)on3)cc2)cc1`, 0.9787 ± 0.0045; that for `CN(C)CC(=O)N1[C@H](C(=O)Nc2nccs2)[C@@H](CO)[C@@H]2Cn3c(ccc(C4=CCCCC4)c3=O)[C@@H]21`, 1.02 ± 0.015.
For `CC(C)CC#Cc1ccc([C@H]2[C@@H](CO)N3CCCCN(C(=O)Nc4ccccc4)C[C@H]23)cc1`, the viability index under setting [2] stood at 0.782 ± 0.084.
Same read-out and setting: as for `CCCC#Cc1cnc2c(c1)C(=O)N([C@H](C)CO)C[C@@H](C)[C@H](CN(C)C(=O)Nc1cc(F)ccc1F)O2`, the figure is 0.822 ± 0.058; as for `CO[C@@H](CN(C)Cc1ccc(-c2ccccn2)cc1)[C@H](C)CN(C(=O)Nc1ccc(F)cc1)[C@H](C)CO`, 1.14 ± 0.077; as for `O=C(C1CCCCC1)N1[C@@H]2CN(S(=O)(=O)c3ccccc3)c3ccccc3[C@@H]2[C@@H]1CO`, 1 ± 0.065.
Still for that read-out and setting: as for `CC(C)N(C[C@H]1[C@@H](c2ccccc2)[C@@H](CO)N1CC1CC1)C(=O)C1CCC1`, the figure is 1.07 ± 0.014; as for `COCC(=O)N1[C@@H](C#N)[C@@H](c2ccc(C#CCC3CCCC3)cc2)[C@@H]1CO`, 1.107 ± 0.0088; as for `O=S(=O)(c1ccc(F)cc1)N1CCCCN2[C@H](C1)[C@H](c1ccc(-c3cncnc3)cc1)[C@@H]2CO`, 1.057 ± 0.0041.
As for `C[C@H]1CN([C@@H](C)CO)C(=O)c2c(c3ccccc3n2C)-c2ccccc2CO[C@@H]1CN(C)Cc1cccc(C(F)(F)F)c1`, the viability index under setting [2] stood at 0.975 ± 0.022.
On the same count and under the same terms, the result for `CNC[C@H]1OCCCC[C@@H](C)Oc2ccc(NS(=O)(=O)c3ccc(F)cc3)cc2C(=O)N([C@H](C)CO)C[C@@H]1C` reads 1.13 ± 0.13; that for `N#C[C@H]1[C@H](c2ccc(-c3cccc(F)c3)cc2)[C@H](CO)N1c1nc(-c2ccccc2)cs1`, 1.039 ± 0.0041.
On the same count and under the same terms, as for `Cc1noc(C)c1NC(=O)N(C)C[C@@H]1Oc2cc(C#CCN(C)C)ccc2S(=O)(=O)N([C@@H](C)CO)C[C@@H]1C`, the figure is 0.972 ± 0.051.
Take `CCS(=O)(=O)Nc1ccc2c(c1)C(=O)N(C)C[C@@H](OC)[C@H](C)CN(C(=O)c1ccc3c(c1)OCO3)[C@H](C)CO2`: the viability index under setting [2] was 1.11 ± 0.061.
The same measure, in the same setting: as for `COc1ccccc1NC(=O)N1CC(=O)N2[C@@H](CO)[C@H](c3ccc(C#CC(C)C)cc3)[C@@H]2C1`, the figure is 1.08 ± 0.011; as for `CNC[C@H]1OCc2ccccc2-c2ccccc2C(=O)N([C@H](C)CO)C[C@@H]1C`, 0.99 ± 0.045.
The same measure, in the same setting: the result for `Cc1ccc(S(=O)(=O)Nc2ccc3c(c2)C(=O)N([C@@H](C)CO)C[C@H](C)[C@@H](CN(C)S(=O)(=O)c2cccs2)OCCCC[C@H](C)O3)cc1` reads 0.8848 ± 0.0037; that for `CN(C)C(=O)c1ccc(-c2ccccc2[C@H]2[C@@H](C#N)N(C(=O)C3CC3)[C@H]2CO)cc1`, 1.14 ± 0.024.
Still for that read-out and setting: the result for `C/C=C/c1ccc([C@@H]2[C@H](CO)N(C(=O)C3CCCC3)C23CN(S(C)(=O)=O)C3)cc1` reads 1.03 ± 0.053; that for `COc1ccc2c3c([C@H](CO)NC[C@]33CN(C3)C(=O)Nc3ccccc3F)n(C)c2c1`, 0.949 ± 0.019.
With `CO[C@@H]1CN(C)C(=O)c2ccc(NC(=O)Nc3ccccc3Cl)cc2OC[C@@H](C)N(C)C[C@H]1C`, the viability index under setting [1] turned out to be 0.889 ± 0.09.
The compound `C[C@@H]1CN([C@@H](C)CO)C(=O)c2cc(-c3cccc(C(=O)N(C)C)c3)cnc2O[C@H]1CN(C)C(=O)Cc1ccccn1` came in with a viability index under setting [2] of 0.973 ± 0.097.
Same read-out and setting: as for `O=C(O)[C@H]1[C@H](CO)[C@H]2Cn3c(ccc(-c4ccccc4F)c3=O)[C@H]2N1Cc1ccccc1`, the figure is 1.09 ± 0.037; as for `O=C(C[C@H]1C[C@H]2c3cc(NC(=O)CC4CC4)ccc3O[C@H]2[C@H](CO)O1)NCC1CC1`, 0.9945 ± 0.0055.
For the compound `O=C(Nc1ccc(Cl)cc1)N1C[C@H]2[C@@H](c3ccccc31)[C@@H](CO)N2CC1CCCCC1`, the viability index under setting [2] turned out to be 0.977 ± 0.14.
For the compound `OC[C@H]1[C@@H](c2ccc(-c3cccc(F)c3)cc2)[C@@H]2CN(Cc3cncnc3)CCCCN12`, under setting [2], the viability index was 0.963 ± 0.1.
The same measure, in the same setting: as for `C[C@@H]1CN([C@H](C)CO)C(=O)c2cc(NS(=O)(=O)c3cn(C)cn3)ccc2O[C@@H]1CN(C)C(=O)Nc1cccc2ccccc12`, the figure is 0.95 ± 0.13; as for `O=C(c1ccccc1F)N1CC2(C1)[C@H](c1ccccc1)[C@@H](CO)N2CC1CCOCC1`, 1.1 ± 0.09; as for `Cc1cccc(-c2ccc([C@@H]3[C@@H](CO)N4C(=O)CN(C(=O)c5ccc6c(c5)OCO6)C[C@H]34)cc2)c1`, 0.917 ± 0.033.
Under setting [2], `O=C(C[C@@H]1CC[C@@H]2[C@H](COC[C@@H](O)CN2Cc2nccs2)O1)NCc1ccccc1Cl` returned a viability index of 1.035 ± 0.0082.
Take `COc1cccc(C#Cc2ccc3c(c2)O[C@@H](CN(C)C(=O)CN2CCOCC2)[C@H](C)CN([C@H](C)CO)S3(=O)=O)c1`: the viability index under setting [2] is 1.02 ± 0.063.
The compound `CN(C)CC(=O)N[C@@H]1CC[C@H](CCNC(=O)C2CCC2)O[C@@H]1CO` yielded a viability index under setting [2] of 1.1 ± 0.04.
Still for that read-out and setting: as for `CNC[C@H]1Oc2ccc(NC(=O)CCC(F)(F)F)cc2C(=O)N([C@@H](C)CO)C[C@H]1C`, the figure is 1.016 ± 0.0091; as for `C[C@@H]1CN([C@H](C)CO)C(=O)c2cc(NC(=O)Nc3ccc(C(F)(F)F)cc3)ccc2O[C@@H](C)CCCCO[C@@H]1CN(C)S(=O)(=O)c1ccc(Cl)cc1`, 1.05 ± 0.12; as for `O=C(C[C@H]1CC[C@@H]2[C@H](COC[C@@H](O)CN2Cc2ccc(C(F)(F)F)cc2)O1)N1CCc2ccccc2C1`, 1.07 ± 0.085.
Under setting [2], `COc1ccc(CN(C)C[C@H]2OCCCC[C@@H](C)Oc3ccc(NC(=O)C4CCCCC4)cc3C(=O)N([C@H](C)CO)C[C@H]2C)cc1` had a viability index of 1.04 ± 0.021.
The same measure, in the same setting: the result for `CCS(=O)(=O)N1CC2(C1)[C@H](c1ccccc1)[C@@H](CO)N2C(=O)c1ccccc1` reads 1.13 ± 0.033.
